According to PubChem BioAssay AID1508623 (National Center for Advancing Translational Sciences (NCATS), 2021):
About 450 (0.94%) of roughly 48,000 compounds were called active. Not shown: some 19% with an inconclusive outcome. Calls follow the shape of the dose curve; as a rule, active = well fitted inhibition curve with a large enough effect; inconclusive = small, poorly fitted or top-dose-only effect; inactive = no such curve, though single readings can be large or run the other way. Some of the results follow.

Assay: Primary qHTS for Identification of Small Molecule Inhibitors of Huntingtin Promoter Activity; also: nearly all actives have a fitted effect of over 50% in size
Conditions: HEK293 HTT promoter firefly luciferase reporter (activity 0% = vehicle and -100% = no light), 24 h; series mostly up to 57.5 µM; activity change, negative = inhibition: at the top concentration
How it was run: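 HEK293 luciferase promoter-reporter cells (2,500/well) plated 24 h, then compounds added at up to 57.5 uM final for 24 h at 37 °C. Firefly luminescence by Dual-Glo, normalized to vehicle (0%) and zero RLU (-100%).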

Activity change, negative = inhibition, inactive:
CCOC(=O)c1ccc2c(c1)N(CC(=O)Nc1cc(F)ccc1F)C(=O)c1ccccc1S2 -14.5%
O=C(NCCCN1CCN(c2ccc(F)cc2)CC1)c1cc2c(s1)-c1ccccc1OC2 -28.4%
C[N+]1(C)[C@@H]2CC(OC(=O)[C@H](CO)c3ccccc3)C[C@H]1[C@@H]1O[C@@H]12 (some centres undefined) 12.6%
OCC(CO)N[C@H]1C[C@](O)(CO)[C@@H](O)[C@H](O)[C@H]1O -5.77%
CSc1ccccc1NC(=O)C1=CC(c2ccc3c(c2)OCO3)=NS(=O)(=O)N1C -24.5%
CC1=C(C(N)=O)C(c2cccc(C)c2)n2nc(-c3ccc(Cl)cc3)nc2N1 (centres undefined) -8.42%
CCOC(CN1CCN(CC(C)C(=O)c2ccccc2)CC1)c1ccccc1 (centres undefined) -10.3% [at 25.2 µM]
COc1ccc(NC(=O)c2c(NC(=O)COc3ccc(Cl)cc3)sc3c2CCCCC3)cc1 62.5%
Cc1cccc(-c2nc3cc(NC(=O)Cc4ccc(Cl)cc4)ccc3o2)c1 -8.98%
CCN(C(=O)Cn1nc2c3cc(F)ccc3n(Cc3cccc(C)c3)cc-2c1=O)c1cccc(C)c1 -2.48%
CCOC(=O)CCN(Cc1ccccc1)S(=O)(=O)c1csc(C(N)=O)c1 -8.1%
COc1cc(OC)c(NC(=O)N2CCOc3ccc(C)cc32)cc1Cl 0.976%
COc1ccc(Cn2nnc3c(=O)[nH]c(C4CCCN(C(=O)c5ccccc5Cl)C4)nc32)cc1OC (centres undefined) -19.6%
N#Cc1cc2c(=O)n3ccccc3nc2n(-c2nnc(SCc3ccc(F)cc3)s2)c1=O -5.54%
CC1CN(C(=O)CCC(=O)NCc2cccs2)c2ccccc2O1 (centres undefined) -18.9%
COc1ccc(NC(=O)c2c(NCc3ccc(C)o3)sc3c2CCC(C)C3)cc1 (centres undefined) -3.54%
Cc1ccc(S(=O)(=O)c2cn(C)c3cc(N4CCN(c5ccccc5)CC4)c(F)cc3c2=O)cc1 -5.05%
CCOC(=O)N1CCc2c(sc3c2c(=O)n(Cc2ccccc2)c(=O)n3Cc2cccc(Cl)c2)C1 -1.82%
COc1cc(NC(=O)C2=C(C)Nc3nnnn3C2c2ccc(SC)cc2)c(OC)cc1Cl (centres undefined) -2.54%
CCOc1ccccc1NC(=O)C1CCN(S(=O)(=O)c2ccc(Br)cc2)CC1 -9.41%
Cc1ccc(-n2nc(C(=O)N3CCCCC3C)c(=O)n(C)c2=O)cc1 (centres undefined) 4.46%
Cc1nn(CCCC(=O)NCc2ccccc2)c(=O)c2c1sc1ccccc12 0.239%
O=C(NC1CC(=O)N(c2ccccc2)C1)C1CCCC1 (centres undefined) -17.1%
Cc1ccc2c(c1)c(=O)c1ccccc1n2CCCC(=O)Nc1ccc(F)cc1F -32%
COC(=O)c1ccc2nc(C)cc(Nc3ccc(O)cc3)c2c1 -4.64%
COc1ccc(NC(=O)Cn2c(=O)n(-c3ccc(Cl)cc3)c(=O)c3c(C)c(C(=O)N(C)C)sc32)cc1Cl 1.63%
COC(=O)c1cc(Cl)c(NC(=O)/C=C/c2ccc(Cl)cc2Cl)cc1OC 5.46%
CCOC(=O)c1ccc(NC2=CC(c3ccc(Br)cc3)N(c3ccc(C(=O)OCC)cc3)C2=O)cc1 (centres undefined) -6.34%
Cc1cccc(C2NC(=O)c3c(sc4c3CCN(C)C4)N2)c1O (centres undefined) 42.5%
CCOC(=O)c1ccc(NC(=O)C(=O)NCc2ccco2)cc1 4.59% [at 11.5 µM]
COc1cccc(Cc2nc3ccccc3nc2SCC(=O)N2CCc3ccccc32)c1 -12.1%
Cc1cccc(Oc2nc3c(C)cccn3c(=O)c2/C=C(\C#N)c2nc3ccccc3s2)c1 5.88%
O=S(=O)(c1ccccc1)c1nc(-c2cccc(Cl)c2)oc1NCc1ccccc1 -7.21%
COc1ccc(Br)c2c1-c1nc(NC(=O)c3ccccc3SC)sc1C2 -3.71%
COCCNC(=O)CSc1nnc(-c2ccc(OC)c(OC)c2)c(-c2ccc(OC)c(OC)c2)n1 -13.6%
Cc1c(C(=O)NCCN(C)C)oc2c1-c1nn(Cc3ccccc3Cl)cc1CC2 6.04%
COc1ccccc1-c1c(C)nn2c(N3CCN(c4ccc(Cl)cc4)CC3)cc(C)nc12 -9.44%
CCOC(=O)c1ccc(Nc2nc(C)cc(C)n2)cc1 5.19%
CC(Sc1nc(-c2ccccc2)c(C#N)c(=O)[nH]1)C(=O)Nc1ccc(F)cc1 (centres undefined) -13.4%
COc1ccc(N(CC(=O)N2CCN(c3cc(C)ccc3C)CC2)S(=O)(=O)c2c(C)noc2C)cc1 -6.45%
Cc1ccc(-n2ncc3c(NNC(=O)c4ccccc4C)ncnc32)cc1 -22.3%
COc1ccc(-c2c(C)nn3c(N4CCC(C(=O)NCCC(C)C)CC4)cc(C)nc23)cc1OC -8.36%
CC(C)CCn1c(SCc2ccc(F)cc2Cl)nc2ccsc2c1=O -4.97%
CC1=C(C(=O)Nc2ccccc2)C(c2ccc(C(=O)O)cc2)n2nc(SCC(=O)c3ccc(C)cc3)nc2N1 (centres undefined) 8.64%
CCc1ccc(-c2[nH]c3c(c2-c2c(-n4cccc4)n(C)c(=O)n(C)c2=O)c(=O)n(C)c(=O)n3C)cc1 -4.23%
Cc1ccc(Cn2c(=O)c3c(nc4n3CCN4c3cc(C)cc(C)c3)n(C)c2=O)cc1 70.5%
COc1ccc(-c2nc(CCNC(=O)c3cc(OC)c(OC)c(OC)c3)cs2)cc1 -6.55%
COCCCNC(=O)c1ccc(NC(=O)N2CCCCc3ccccc32)cc1 -15.3%
CCCN1CCN(CC2=C(C(=O)OCC)C(c3ccc(Cl)cc3)NC(=O)N2)CC1 (centres undefined) -4.33%
COc1ccc(Cl)cc1NC(=O)CCCn1c(=O)c2cccn2c2cccnc21 -15.2%
COC(=O)c1c(NC(=O)c2ccc(S(=O)(=O)N3CCCCC3C)cc2)sc2c1CCN(C(C)C)C2 (centres undefined) -9.31%
CCOC(=O)N1CCc2c(sc(NCc3ccc(OC)c(Br)c3)c2C(=O)Nc2cc(OC)ccc2OC)C1 -9.21%
CCOC(=O)c1ccccc1NC(=O)N(Cc1ccc(C)cc1)Cc1cccn1-c1nnc(N2CCCC2=O)s1 -5.46%
CCC(C)n1c(=N)c(S(=O)(=O)c2ccc(C)cc2)cc2c(=O)n3cc(C)ccc3nc21 (centres undefined) 0.835%
COc1cccc(NC(=O)Cn2c(=O)n(CCCC(=O)NCc3ccc4c(c3)OCO4)c(=O)c3ccccc32)c1 -11.8%
Cc1ccc(CNC(=O)c2c(-c3ccccc3F)noc2C)o1 -15.8%
COC(=O)c1nnn(CC(=O)NC(=O)Nc2ccccc2F)c1C(=O)OC -11.8%
Cc1noc(NS(=O)(=O)c2ccc(NC(=O)c3ccc(Br)cc3)cc2)c1C -10.3%
CCN1CCC(N(Cc2ccc(F)cc2)C(=O)Nc2cccc(C(F)(F)F)c2)CC1 -29.2%
